The source gives no read counts; variants with many changes may rest on few reads.

The labels stand for the following.
B1: LINE1-mini (parent)
chain: GGCAGAGCUCAACACAGCGUGGCAAAGUGGCUGUGGCUAGACUGCC

In this data set the parent is B1. Description: self-cleavage, relative activity (ratio to wild type); higher = more cleavage; in vitro, sequencing; the parent is a self-cleaving ribozyme.
In the case of GGCAGAGCCCAACUCAGCGUGGCAAAGUGGCUGUUGCUAUACUGCC [U9C A14U G35U G40U], the self-cleavage is 0.03.
With GGCAGAGCCCAACACAGCGUGGCAAAGUGGAUGUUGCUAUACUGCC [U9C C31A G35U G40U] the figure was 0.01.
The value for GGCAGAGCCCAGCACAGCGUGGCAAAGUUGCUGGGGCUAGACUGCC [U9C A12G G29U U34G] was 0.01.
On to GGCAGAGCCCAAUACAGCGUGUCAAAGUGGCUGUGGCUAGACUGCC [U9C C13U G22U], for which the self-cleavage came out at 0.03.
Consider GGCAGAGCCCAACACAGUGUGGCAAAGUGGCGGUGGCUAGACUGCC [U9C C18U U32G], for which the self-cleavage is 0.05.
With GGCAGAGCGCCACACAGCGUUGCAAAGUGGCUGUGGCUAGACUGGC [U9G A11C G21U C45G] the figure was 0.01; with GGCAGAGCACAACACAGCGUGGCAAAGCGGCUGUGUCUAGACUGCU [U9A U28C G36U C46U], 0.09; with GGCAGAGCCCAACACAGCGUGACAAUGUGGCUGUGGCUAGACUGGC [U9C G22A A26U C45G], 0.04.
On to GGCAGAGCCCAACACAGCGUGGCAAAGUGGAUGUGGCUGGACUACC [U9C C31A A39G G44A], for which the self-cleavage came to 0.01.
With GGCAGAGCCCCAUACAGCGUGGAAAAGUGGCUGUUGCAAGACUCCC [U9C A11C C13U C23A G35U U38A G44C] the figure was 0.01; with GGCAGAGCCCAACACAGCGUGCCAAAGUGGUUGUGGCUAGACUGCC [U9C G22C C31U], 0.
For GGCAGAGCCUAACACAACGUGGCAAAGGGGCUGUGGCUAGACUGCC [U9C C10U G17A U28G], the self-cleavage came out at 0.01.
With GGCAGAGCCCAACACAGAGUGGCAAAGUGGCUGUGGCGAGACUGCC [U9C C18A U38G] the figure was 0.02; with GGCAGAGCCUAACACAGCGUGGCAAAGAGGCUGUGGCCAGACUGCC [U9C C10U U28A U38C], 0.02.
For the variant GGCAGAGCCAAAGAAAGCGUGGCAAAGUGGCCGUGGCUAUACUGCG [U9C C10A C13G C15A U32C G40U C46G], the self-cleavage turned out to be 0.02.
Regarding GGCAGAGCCUAACACAGCGUGGGAAAGUGGCUUUGGCUAAACUGCC [U9C C10U C23G G33U G40A], the self-cleavage came out at 0.
The value for GGCAGAGCCCAAAACAGCGUGGCAAAGUGGCUGUGGCUAGACUGCG [U9C C13A C46G] was 0.02; that for GGCAGAGCCCAACACAGAGUGGCAAAGUGGCUGUGGUGAGACUGCC [U9C C18A C37U U38G] was 0.01; that for GGCAGAGCGCGAAACAGCGUGGCAAAGUGGCUGUGGCUAGACUUCC [U9G A11G C13A G44U] was 0.04.
On to GGCAGAGCCCAACACAGUGUGGCAAAGUGGCUGUGGCUAGACAGCC [U9C C18U U43A], for which the self-cleavage turned out to be 0.05.
GGCAGAGCCCAACACAGCGUGGUAAAUUGGCUGUGGCUAGACUCCC [U9C C23U G27U G44C]: the self-cleavage was determined as 0.01.
With GGCAGAGCCUAACACAGCGUGGCAAAGUGGCUUUGGCUAGUCUGCC [U9C C10U G33U A41U] the figure was 0.06; with GGCAGAGCCCAAUACAGCGUGGCAAAGUGGGUGUGGCUAGACUGCC [U9C C13U C31G], 0; with GGCAGAGCCCAAGAAAGCGUGGCAAAGUGGCUGUGGUUAGACUUCU [U9C C13G C15A C37U G44U C46U], 0.
The value for GGCAGAGCCCAACACAGCGUGGGAAACUGGCUGUGGCUAGACUGCC [U9C C23G G27C] was 0.02; that for GGCAGAGCCCAACACAGCGUGACAAAGUGGCUGUGCCUAGACGGCC [U9C G22A G36C U43G] was 0.01; that for GGCAGAGCCCAACACAGGGUGGCAAAGUGGCUGCCGCUAGACUGCC [U9C C18G U34C G35C] was 0.02.
With GGCAGAGCCCAACACAGCGUGGCACAGUGGCUGUGGCUAGACUGCU [U9C A25C C46U] the figure was 0.03.
As to GGCAGAGCCCAAGACAGCGUGGCAAAGUUGCUGUGGCUAGACUGCC [U9C C13G G29U], the self-cleavage was 0.02.
The value for GGCAGAGCCAAACUCAUCUUGGCAAAGUGGCUGUGGCUAGACUGCC [U9C C10A A14U G17U G19U] was 0.01; that for GGCAGAGCCCAACACCGCGUGGCAAAGUGGCUGAGGCUAGAAUGCC [U9C A16C U34A C42A] was 0; that for GGCAGAGCCCAAUACAGCGUGGCAAAGUGGCUAUGGCUGGACUGCC [U9C C13U G33A A39G] was 0.05.
With GGCAGAGCCCAACACAGCGUGCAAAAGUGGAAGUGGCUAGAGUGCC [U9C G22C C23A C31A U32A C42G] the figure was 0.01.
For GGCAGAGCCUAGCACAGCGUGCCAAUGUGGCUGUGGCUAGACUGCC [U9C C10U A12G G22C A26U], the self-cleavage came to 0.
The value for GGCAGAGCCCAUCACUGCGUGGCAAAGUGGCUGUGGAUAGACUGCC [U9C A12U A16U C37A] was 0.03; that for GGCAGAGCCCAAUACAGCGUGGCAAAGUGGCUGUGACUUGACUGCC [U9C C13U G36A A39U] was 0.01; that for GGCAGAGCCCAACACAGCGUAGCAAAGAGGCUGUGGCUAGACUGCC [U9C G21A U28A] was 0.04.
The value for GGCAGAGCCCAUCACAGCUUGGCAAAGUGGCUGUGGCCAGACUGCC [U9C A12U G19U U38C] was 0.01.
GGCAGAGCCAAACACAGCGUGGAAAAGUGGCUGUGGCUAGACUGCC [U9C C10A C23A]: the self-cleavage was determined as 0.02.
With GGCAGAGCCCAACACAGCGUGGAAAAGUGGCUGUGGCUAGACUACC [U9C C23A G44A], the self-cleavage is 0.03.
For GGCAGAGCCCAGCACAGCGUGGCAAGGUGGCUGUGGCUAGAGUGCC [U9C A12G A26G C42G], the self-cleavage came out at 0.01.
With GGCAGAGCCCAACACAGCGAGGCGAAGUGUCUGCGGCUAGACUGCC [U9C U20A A24G G30U U34C] the figure was 0; with GGCAGAGCCCAACACAGCGUGGCAAAGUGGCUGUAGCUAGACUGUC [U9C G35A C45U], 0.03.
With GGCAGAGCCGAACACAGCGUGGCAAAGUGGCUGUGGCUAGACUUCA [U9C C10G G44U C46A] the figure was 0.02.
GGCAGAGCCCAACCCAGCCGGGCAAAGGGGUUGUGGCUAGACUGCC [U9C A14C G19C U20G U28G C31U]: the self-cleavage was 0.01.
With GGCAGAGCGCCACACAGCGUGGCAAGGUGGUUGUGGCUAGACUGCC [U9G A11C A26G C31U] the figure was 0; with GGCAGAGCCCAACACAGAGUGGCAAAGUUGCUGUGGCUAGACUGCC [U9C C18A G29U], 0.02.
With GGCAGAGCGCGACACAGCCUGGCAAACUGGCUGUGGCUAGACUGCC [U9G A11G G19C G27C] the figure was 0.
With GGCAGAGCCCAACACAGCGUGGCAAAGUGGCUGUAGCUAGACUGCA [U9C G35A C46A], the self-cleavage came out at 0.02.
With GGCAGAGCCCAACACAGCGGGGCAAAGUGGCUGUGGCCAGACUGCC [U9C U20G U38C] the figure was 0.03.
The value for GGCAGAGCCCAACUCAGCGUGGCAAAGUGGCUGUGGCUAGAGUGCC [U9C A14U C42G] was 0.01.
In the case of GGCAGAGCCCACCCCAGCUUGGCGAAGUGGCUGUGGCGAGACUGCC [U9C A12C A14C G19U A24G U38G], the self-cleavage is 0.
GGCAGAGCCCAACACAUCGUGGCAAAGGGGCUGUGGCUAGACUGCC [U9C G17U U28G]: the self-cleavage was determined as 0.03.
In the case of GGCAGAGCCCAACGCAGCGUGGCAACGUGCCUGUGGCUAGACUGCC [U9C A14G A26C G30C], the self-cleavage was 0.
The value for GGCAGAGCCCAACACAGCGUGGUAUAGUGGCUGUGGCUAGACUGCC [U9C C23U A25U] was 0.01.
With GGCAGAGCCCAACAUAGCGAGGCACAGUGGCUGUAGCUAGACUGCC [U9C C15U U20A A25C G35A] the figure was 0.02.
